Source: the supplement of paper PMC3334620
The full ranking holds about 33,000 sequences; the median of “E-score (-0.5 to 0.5)” is about -0.04, and the highest 2% start at about 0.36. This is one part of the list.

Biological target: T1, Hmlalpha2 (UniProt P0CY09)
T1 sequence: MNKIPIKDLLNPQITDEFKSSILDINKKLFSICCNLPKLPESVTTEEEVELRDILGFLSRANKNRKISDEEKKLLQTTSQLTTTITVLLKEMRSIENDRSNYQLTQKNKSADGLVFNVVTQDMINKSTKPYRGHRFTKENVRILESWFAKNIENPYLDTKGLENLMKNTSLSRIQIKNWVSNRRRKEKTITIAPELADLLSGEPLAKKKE
Assay: PBM E-score (8-mer binding enrichment) (E-score (-0.5 to 0.5)); higher = stronger / more preferred TF binding; most listed sequences are background and not binding sites
Conditions: protein concentration: 200 nM; construct: GST-full length
Procedure: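 Universal 'all 10-mer' protein binding microarrays (Agilent AMADID 015681) probed with GST-tagged S. cerevisiae TFs (full-length or DBD) made by in vitro transcription/translation (PURExpress), about 100-200 nM. Bound TF was detected with fluorescent anti-GST. Each ungapped 8-mer (which stands for itself and its reverse complement) is scored by the PBM enrichment score (E-score), a modified Wilcoxon-Mann-Whitney statistic from -0.5 to +0.5, computed with the Universal PBM Analysis Suite. Scale: above 0.35 generally sequence-specific binding.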

| Sequence | PBM E-score |
| --- | --- |
| GTGATTGA | 0.229 |
| CCTCTAAG | -0.255 |
| CTGGCCTC | -0.334 |
| GGGCGTAA | 0.0836 |
| ACTCGACT | 0.0143 |
| AGGCAGAC | -0.231 |
| GACTTCTA | -0.0698 |
| ACGGTGGA | -0.0685 |
| GAGCCCAC | -0.304 |
| CCTGAACA | 0.152 |
| AGTGAAAT | 0.0119 |
| CCTAAGTC | -0.403 |
| CGGGGGAC | -0.388 |
| AATCTCCA | 0.042 |
| CAAAGTAG | -0.0513 |
| ACTATAGG | -0.131 |
| AGCTTATA | 0.0751 |
| ACTTCACC | -0.0828 |
| CCCTGAGC | -0.282 |
| ACCATCAG | -0.154 |
| CATTGGAA | 0.0982 |
| TCGCAAAA | 0.0537 |
| GGCGATAC | -0.127 |
| TCGCTCAA | -0.0107 |
| TCGCGACA | -0.138 |

| Sequence | PBM E-score |
| --- | --- |
| CTTACCGA | -0.129 |
| CCAGGGGA | -0.291 |
| AAGCATGA | 0.0153 |
| AATGATGA | 0.0124 |
| CTGGGATA | -0.181 |
| AGAATTTA | 0.203 |
| TCGTTTAA | 0.293 |
| ATATATAG | 0.126 |
| AGCCACCA | -0.167 |
| ACGTATGC | 0.0963 |
| TCTAATAA | 0.182 |
| ATTGAGGA | -0.0755 |
| AAGGGTGG | -0.3 |
| ACACAGTG | 0.315 |
| TAAGAACA | 0.355 |
| GTTCTTTA | 0.197 |
| GATCAACC | -0.154 |
| ATTCATGC | -0.00549 |
| GTTCGCTA | 0.0191 |
| AGCAACGA | -0.017 |
| ACCCTGAA | -0.0447 |
| GATACGCA | 0.144 |
| GAGCAGGA | 0.0487 |
| GGCAAGAA | 0.0427 |
| GGGGCACA | -0.167 |

| Sequence | PBM E-score |
| --- | --- |
| ATAGGGAC | -0.235 |
| GCGTTGCA | 0.0313 |
| AAAGCCTG | -0.167 |
| TAGGCCTA | 0.0969 |
| GCCTCGAA | -0.109 |
| ACTGGAGG | -0.298 |
| GCCGCGCC | -0.129 |
| GCTACCAA | 0.00589 |
| AGATAGTG | 0.0358 |
| CTGAATTC | 0.0173 |
| CCTAGAAG | -0.255 |
| ACTCTGGA | -0.0614 |
| AGGCTTCA | -0.223 |
| ATGTTCCA | 0.12 |
| GCCAAGCC | -0.309 |
| CCACCACG | -0.118 |
| AACCTCAC | -0.102 |
| CCAGTCTC | -0.203 |
| ACGGATTA | 0.121 |
| AATGTGAA | 0.235 |
| TCGTACCA | -0.156 |
| ACTGCGCT | -0.0871 |
| CTAAACCA | -0.0151 |
| ATATCATC | 0.0385 |
| AGCTAACT | -0.049 |

| Sequence | PBM E-score |
| --- | --- |
| ACAGTATC | 0.152 |
| CAAGATTC | -0.0343 |
| ATATATGC | -0.0235 |
| AGATAGAC | 0.0844 |
| GAATCAGA | -0.0847 |
| CTGCTTGA | -0.0539 |
| ACGCTTGG | 0.0568 |
| CGCGCATC | -0.0161 |
| CAAGGGCG | -0.0004 |
| ATCTGGGA | -0.212 |
| ACGCAGAT | 0.162 |
| CTCCTTCC | -0.0659 |
| ATGAATAA | 0.198 |
| GCTATGGA | -0.249 |
| AGGGAACT | -0.105 |
| GACGGACC | -0.175 |
| GGGTGACA | -0.00972 |
| TCCAGCAA | -0.0655 |
| AGTCGGAA | -0.17 |
| AGCAGAAT | 0.0669 |
| CGGTTTAG | -0.141 |
| ACAAAGCC | 0.146 |
| AATGATTG | 0.0613 |
| AGGTTCGA | 0.111 |
| AGGATCCG | -0.222 |

| Sequence | PBM E-score |
| --- | --- |
| ATGTCAAC | 0.374 |
| TAAACACA | 0.379 |
| GCGTCGGA | 0.0914 |
| CCTATTCC | -0.123 |
| GCTCTAAA | -0.112 |
| ATAAAAGA | -0.0789 |
| AGATCGGG | -0.317 |
| CCGTCCAC | -0.158 |
| AGGTTATC | -0.119 |
| TCCTGAAA | -0.16 |
| ACTGTCGG | -0.208 |
| AATGGTGG | -0.232 |
| AATGAAAA | 0.071 |
| ATCACGTC | 0.108 |
| AGACTGTA | -0.0771 |
| GTGGCGCA | -0.0228 |
| CTACGATA | 0.0842 |
| AAAAATGA | 0.082 |
| CTGTGCAC | 0.0227 |
| CAACAAGG | 0.359 |
| AATGGGCA | -0.0715 |
| GCCACAGA | -0.0817 |
| CAACTATC | -0.214 |
| CGAAACCG | -0.097 |
| CTCCATCA | -0.11 |

| Sequence | PBM E-score |
| --- | --- |
| GGTGGCAC | -0.346 |
| ATAAGGAG | -0.0461 |
| CTCCTGTC | -0.0444 |
| GCCGTTAC | -0.0446 |
| TCGCGAGA | -0.185 |
| AGCTACGG | -0.0359 |
| CCACCCAA | -0.147 |
| AATAACGG | -0.0296 |
| GACGATGC | -0.0881 |
| GCAACACC | -0.0115 |
| ACGCGCCA | 0.237 |
| AGTCAAGC | -0.258 |
| CGATGGTA | -0.0712 |
| ATTTTTAA | 0.237 |
| CAAAGGAC | -0.159 |
| CTATACAC | 0.213 |
| AGAGGACG | 0.0581 |
| CTACTTGC | 0.0575 |
| CCTGCCAA | -0.0799 |
| TATCTCCA | -0.0977 |
| AGTGCTAG | -0.128 |
| ACTACCCC | -0.316 |
| ACGATACA | 0.226 |
| AATCTGTC | -0.0376 |
| GTGAACAA | 0.276 |

| Sequence | PBM E-score |
| --- | --- |
| AAAGACGC | -0.0524 |
| ACGCTTGC | -0.0163 |
| AAGTCCTA | -0.1 |
| ACCCCGAA | -0.00187 |
| AAACAGGG | -0.125 |
| AACTAGCT | 0.0481 |
| ATGCGTTC | 0.122 |
| ATCGGAGA | -0.18 |
| GAACGGCC | -0.213 |
| TGTAAAAA | 0.444 |
| AACGCTGA | 0.016 |
| CAGGATGA | -0.109 |
| CAGCGGCG | 0.0698 |
| CCTATCAA | 0.0128 |
| TACTTAAA | -0.0189 |
| CGCAGGAA | -0.153 |
| CCTAGAAA | -0.176 |
| AGCAAAAG | -0.0333 |
| AAGTGTAT | 0.194 |
| CTCGATAC | 0.153 |
| CGCCGCAA | -0.0429 |
| CGATTGCC | -0.164 |
